In the supplement of paper PMC7826260:
This is one part of the list. The data describe in vitro nicking of single-stranded DNA by Rep domains (1 h at 37 °C, 3 µM enzyme); the outer parts of the 90-letter strands are left off. Values are log2 of uncut reads against the no-enzyme pool; the lower, the more was cut; hits are not called. Shares of all reads are compared; values above 0 arise when much of the pool is cut.

Test system: T1, Rep nickase domain of tomato golden mosaic virus
T1 sequence (Rep 1-124, printed without the tag): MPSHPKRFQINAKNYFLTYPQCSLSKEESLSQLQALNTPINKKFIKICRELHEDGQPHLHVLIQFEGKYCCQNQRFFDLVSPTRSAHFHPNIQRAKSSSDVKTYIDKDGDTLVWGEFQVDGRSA
Experiment: uncleaved DNA left, log2 of reads against the no-enzyme library (log2 ratio); higher = less cleavage (more negative = more Rep cleavage of the k-mer); sequences stand for … in CTCGTCCG…ACCGGAGA
Procedure: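 A pool of 90-nt single-stranded DNAs with seven random bases just before the constant AC of the nick site (name = the seven bases) was cut by 3 µM recombinant His6-SUMO-tagged Rep nickase domain (300 nM DNA, 50 mM HEPES pH 8.0, 50 mM NaCl, 1 mM MnCl2, 1 h, 37 °C, three replicates). Uncut DNA was amplified and sequenced.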

Sequence	uncleaved DNA left (log2)
TCTCAGT	0.0953
ACGCAGG	0.0458
AGCCGAG	0.157
TAGCCTA	-0.0507
TAACTGA	-0.085
TGTTGTC	-0.13
TTTCAGG	0.0668
GGGTTTC	-0.0989
CACCGTT	-0.129
TGAAGAG	0.1
ATCCCGC	0.043
GGATTGA	0.0799
TCCCGAT	0.00736
ACCTCGA	0.0427
AGTAGCA	0.0668
GTTGTGA	0.0622
CACGCCG	0.0176
TGGGAGA	0.0769
CGCCCCC	-0.173
ATTGGCT	-0.0451

Sequence	uncleaved DNA left (log2)
TGGCCTT	-0.192
ATCTAAG	-0.0461
GTGTCAA	0.102
CGGCCGT	-0.00894
CTTGGGT	0.0032
AATTAGC	-0.11
GGTTAAC	0.0311
GGGCCAG	0.095
CGCCTAG	-0.151
TTAGAGG	-0.022
ACAGCCG	-0.0344
TCACAGG	0.0925
ACCTTGT	0.0569
ACGCAGA	0.124
GACCGGA	0.116
TGCTCCC	-0.119
TTTCTCG	-0.106
CTGCTAT	0.0318
ATTCGTG	-0.0354
GCGTGTT	-0.305
